# Measured values taken from PubChem BioAssay AID488969 (Vanderbilt High Throughput Screening Facility, 2010).
# In all, about 110,000 compounds were measured (“z-score”: median about -0.1, highest 2% from about 2 on). The list shows a part of the results.
# Biological target: Metabotropic glutamate receptor 8 (Rattus norvegicus) (UniProt P70579)
# Assay: mGluR8 Gi/Go-coupled signaling modulation – cell-based, rat, thallium flux, HTS, primary screen (AID 488969)
# Settings: HEK293 rat mGluR8, GIRK (G protein-gated inwardly rectifying potassium channel) thallium flux, FluoZin2; at 10 µM; stronger effect = higher value; submaximal glutamate (EC20) added with thallium
# Sequence of UniProt P70579 (P70579 whole entry, looked up): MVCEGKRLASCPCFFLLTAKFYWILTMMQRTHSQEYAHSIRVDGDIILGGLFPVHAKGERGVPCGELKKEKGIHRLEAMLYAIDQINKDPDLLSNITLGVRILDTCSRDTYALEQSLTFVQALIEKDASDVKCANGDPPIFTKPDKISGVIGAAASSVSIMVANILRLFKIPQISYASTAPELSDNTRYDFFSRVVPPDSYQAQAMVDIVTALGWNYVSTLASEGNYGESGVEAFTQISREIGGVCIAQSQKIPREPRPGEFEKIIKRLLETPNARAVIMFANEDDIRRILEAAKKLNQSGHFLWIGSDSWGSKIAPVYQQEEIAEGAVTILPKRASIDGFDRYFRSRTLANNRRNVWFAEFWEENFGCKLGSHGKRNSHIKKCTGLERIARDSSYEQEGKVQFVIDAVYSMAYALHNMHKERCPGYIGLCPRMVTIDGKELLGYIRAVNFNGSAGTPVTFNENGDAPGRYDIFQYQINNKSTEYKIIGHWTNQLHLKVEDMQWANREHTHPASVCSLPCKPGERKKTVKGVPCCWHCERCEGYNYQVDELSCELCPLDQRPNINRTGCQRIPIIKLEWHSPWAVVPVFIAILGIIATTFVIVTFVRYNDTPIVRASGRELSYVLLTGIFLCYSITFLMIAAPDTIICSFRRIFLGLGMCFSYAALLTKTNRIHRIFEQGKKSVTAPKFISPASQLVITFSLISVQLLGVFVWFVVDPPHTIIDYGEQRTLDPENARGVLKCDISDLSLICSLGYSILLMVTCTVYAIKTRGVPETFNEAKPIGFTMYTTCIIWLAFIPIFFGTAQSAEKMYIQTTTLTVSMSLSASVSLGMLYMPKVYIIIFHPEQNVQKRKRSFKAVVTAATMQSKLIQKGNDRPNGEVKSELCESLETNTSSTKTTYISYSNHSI
row,Structure (SMILES),z-score
1,COc1cccc(C(=O)N/N=C2\SCC(=O)N2Cc2ccc3c(c2)OCO3)c1,-0.191
2,COc1ccc(-n2c(=O)c3ccccc3n(CC(=O)NC3CCCC3)c2=O)cc1,0.339
3,Cc1ccc(NC(=O)CSc2nnc(C)c(=O)n2N)c(C)c1,-0.162
4,O=C1c2ccccc2C(O)(c2ncc[nH]2)N1CCc1ccccc1 (centres undefined),-0.168
5,CC(=O)c1cc(F)c(N2CCN(C(=O)COc3ccc(F)cc3)CC2)cc1C,-0.112
6,Cc1cc2c(c(=O)o1)C(Cc1ccccc1)C(C#N)=C(N)O2 (centres undefined),-0.112
7,COc1nc(NCCc2ccc(OC)c(OC)c2)nc(NC(C)(C)CO)n1,-0.122
8,COc1ccc(C2(C(=O)Nc3cc(C)on3)CCOCC2)cc1,-0.455
9,Cn1nnnc1SCC(=O)N1CCOCC1,0.18
10,Cc1ccc(NC(=O)NC2CCCCC2)cc1Cl,0.508
11,N#C/C(=C\c1ccc(F)cc1)c1n[nH]c(Cn2cncn2)n1,0.359
12,O=C(Cn1c(NCCCO)nc2ccccc21)c1cccs1,0.589
13,CCOC(=O)n1c(=O)n(Cc2ccccc2Cl)c2ccccc21,-0.816
14,COc1ccc(C2(CNC(=O)c3cccc([N+](=O)[O-])c3)CCOCC2)cc1,0.306
15,CCC(OC(=O)c1cccs1)C(=O)NCc1ccco1 (centres undefined),0.805
16,O=P(OC1CCCCC1)(OC1CCCCC1)C(O)c1ccccc1 (centres undefined),-0.904
17,COc1cc2c(C(=O)Nc3ccc4c(c3)OCO4)cn(CC(C)C)c(=O)c2cc1OC,-1.29
18,Cc1ccc(S(=O)(=O)N2CCCOC2CNC(=O)C(=O)NCc2cccs2)cc1 (centres undefined),-0.187
19,O=C(CSCc1ccc(Cl)cc1)NCc1ccccn1,-0.143
20,Cc1ccc(C(=O)COC(=O)c2cccs2)cc1,-0.36
21,COc1ccccc1OCCOCCOc1ccc(C)cc1Br,-0.295
22,N#CC1(c2ccccc2)CCCN1C(=O)c1ccccc1Cl (centres undefined),0.0128
23,Brc1ccc(-c2noc(CCc3ccccc3)n2)cc1,-0.13
24,Cc1cccc(NC(=O)Nc2ccc(C)c(C)c2)n1,-0.316
25,CCc1nc2c(cnn2-c2ccc(Cl)cc2)c(=O)n1-c1ccc2c(c1)OCCO2,0.714

row,Structure (SMILES),z-score
1,COc1ccc(OC)c(N(CC(=O)N2CCCCC2)S(=O)(=O)c2ccc(OC)c(OC)c2)c1,-0.383
2,Cc1ccc2cc(C(=O)O)c(C)nc2c1,-0.0838
3,O=C(CN1CCCC1)Nc1nnc(-c2cccs2)s1,-0.187
4,COc1cc(N2C(=O)CSC23C(=O)Nc2ccccc23)cc(OC)c1OC (centres undefined),0.652
5,O=C(N/N=C/C=C/c1ccc([N+](=O)[O-])cc1)c1cccs1,-0.641
6,CC(=O)Nc1ccc(S(=O)(=O)NCc2csc(C)n2)cc1,-0.0143
7,CN(C)CCn1c(=S)[nH]c2ccccc2c1=O,-0.191
8,CCOc1ccc2nc3c(cc2c1)CN(CCOC)C(=NC)S3,0.0857
9,O=C(C1=NN(c2ccccc2)C2C(=O)N(c3ccccc3)C(=O)C12)c1ccccc1 (centres undefined),-0.164
10,Cc1cc(/C=C(\C#N)C(=O)O)c(C)n1CC(C)C,-0.126
11,O=C(COc1ccccc1)N1CCN(S(=O)(=O)c2ccc(Cl)cc2)CC1,-0.0624
12,CC1=CC2=NC(=O)/C(=C\c3ccc(-c4ccc(Cl)cc4)o3)C(=N)N2O1,-0.056
13,Cc1nc(NC(=O)/C=C/c2ccco2)sc1C,0.205
14,CC12CN(C(=O)c3ccccc3)C3(C#N)CC1CCC23C (centres undefined),0.729
15,CCOC(=O)c1c(/N=C/c2cccc([N+](=O)[O-])c2O)sc(C)c1C,-0.0716
16,Cc1ccc(N2C(=O)c3cccc4c(N5CCN(C)CC5)ccc(c34)C2=O)c2cccnc12,-1.74
17,NC(=S)N=Nc1c(O)n(Cc2ccccc2)c2ccccc12,0.17
18,O=C(CCN1C(=O)c2ccccc2C1=O)Nc1ccc(F)cc1,0.554
19,O=C1C2C(C(=O)N1c1ccc3c(c1)OCO3)C1C=CC2C12CC2 (centres undefined),0.198
20,COc1ccc(-n2nnnc2SCC(N)=O)cc1,0.327
21,CCSc1nnc(NC(=O)c2cc(C)oc2C)s1,0.633
22,COc1ccc(N2C(=O)CS/C2=C\[N+](=O)[O-])cc1,0.156
23,NC(=O)c1ccc(F)cc1,0.635
24,Cc1ccc(Cl)cc1N1CCN(S(C)(=O)=O)CC1,0.079
25,CCOc1ccc(NC(=O)Cn2nnc(C(=O)NCCc3ccc(OC)c(OC)c3)c2N)cc1,-0.555

row,Structure (SMILES),z-score
1,CCOc1cc2c3c(c1)C(C)CC(C)(C)N3C(=O)C2=O (centres undefined),-0.169
2,COc1cc2c(cc1OC)C(c1ccc3c(c1)OCO3)CC(=O)N2 (centres undefined),1.52
3,CCCOc1ccc(Cc2nc(N)nc(N)n2)cc1,-0.499
4,Nc1nnc(SCCCC(=O)c2ccc(F)cc2)s1,-0.825
5,Cc1cc(C(=O)CSc2nnnn2C)c(C)n1-c1ccc2c(c1)OCCO2,0.341
6,O=C(CCCN1C(=O)c2ccccc2C1=O)Nc1ccc(S(=O)(=O)N2CCOCC2)cc1,0.201
7,CCCCNC(=O)CSc1nc2ccc(N3CCOCC3)cc2c(=O)n1CCc1ccccc1,1.19
8,O=C(NCN1C(=O)C2C3C=CC(C3)C2C1=O)Nc1nncs1 (centres undefined),1.07
9,CCC(C)NCCOCCOc1ccc(F)cc1 (centres undefined),-0.0108
10,CC(=O)N(C(C)=O)S(=O)(=O)c1ccc(N=NN2CCCCC2)cc1,-0.235
11,O=C(COC(=O)C(O)c1ccccc1)c1ccc2c(c1)OCCO2 (centres undefined),0.13
12,O=C(Nc1cc(F)cc(F)c1)c1ccc(NCCc2ccccc2)c([N+](=O)[O-])c1,-0.466
13,COc1ccc(C)cc1S(=O)(=O)Nc1cccc(Cl)c1,-0.327
14,COC(=O)C(NNc1ccccc1C)(NC(=O)c1ccc(F)cc1)C(F)(F)F (centres undefined),-0.187
15,Cc1ccc(NC(=O)C2(S(=O)(=O)c3ccc(C)cc3)CC2)cc1,-0.214
16,COc1cc(N=c2ssnc2Cl)c(OC)cc1Cl,0.15
17,COc1ccc(-n2nnc3c(SCc4ccccc4)ncnc32)cc1,-0.518
18,COc1ccc(NCc2nnc(SCC(=O)Nc3cc(C(F)(F)F)ccc3Cl)o2)cc1,-0.363
19,CCCCn1c(SCC(=O)NCc2ccco2)nc2c(sc3ccccc32)c1=O,-0.00992
20,CCn1c(SCC(=O)Nc2ccc(C(=O)OC)cc2)nc2cccnc21,-0.121
21,Cn1cc(Br)c(C(=O)NC2CCCCC2)n1,0.405
22,CCN(C(=O)CCN1C(=O)c2ccccc2C1=O)C1CCCCC1,0.156
23,COc1ccc(S(=O)(=O)Nc2ccccc2-c2nnn(CC(=O)Nc3ccccc3OC)n2)cc1,-0.0696
24,c1ccc2[nH]c(CN3CCCCC3)nc2c1,-0.295
